We go through 3 compounds from PubChem BioAssay (NCI).

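The compound was tested at five concentrations on cells cultured in 96-well plates, with a 48-hour exposure period. Here, GI50 denotes the concentration required for 50% inhibition of growth. TGI: total growth inhibition.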 Bridge positions count the residues as written; N and C are the ends. Square brackets hold non-standard residues; d marks the D form. Peptide text beside a SMILES is read from it. * marks the point of attachment. Phe(3,5-F2) = N[C@@H](Cc1cc(F)cc(F)c1)C(=O)O; Pro(4R-Me) = C[C@H]1CN[C@H](C(=O)O)C1; aThr = C[C@H](O)[C@H](N)C(=O)O; Pip = O=C(O)[C@@H]1CCCCN1; X6 = CCC/C=C/C=C/C(=O)*

This test deals with NCI-H322M lung. Briefly: DTP human tumour cell line panel, 48 h.
Usually GI50 stands for the concentration giving 50% growth inhibition. Usually TGI stands for the concentration at which net growth stops. Low values mean more potent growth arrest, high ones less potent growth arrest. As to `CN1CCN(Cc2ccc(NC(=O)c3cncc(C#Cc4cnc5ccc(OCC6COC6)nn45)c3)cc2C(F)(F)F)CC1`, the GI50 was 234 nM and the TGI worked out at 933 nM.

Turning to `C#CCN(C)CCCOc1ccc(NCc2ccc(C(=O)NO)cc2)cc1Cl`, the GI50 was 2880 nM and the concentration for total growth inhibition (TGI) was 27800 nM.

For the compound `CCC/C=C/C=C/C(=O)N[C@@H](Cc1cc(F)cc(F)c1)C(=O)N[C@@H]1C(=O)N2CCC[C@H]2C(=O)N2CCCC[C@H]2C(=O)N[C@@H](C)C(=O)N2C[C@H](C)C[C@H]2C(=O)O[C@H]1C` (X6-[Phe(3,5-F2)][aThr]P[Pip]A[Pro(4R-Me)]; ester 2-C), the GI50 was 1980 nM and the TGI worked out at 49100 nM.
